The values below come from the supplement of paper PMC3334620.

In all, about 33,000 sequences were measured (“E-score (-0.5 to 0.5)”: median about -0.04, highest 2% from about 0.36 on). The list shows a part of the results.

For the test, the target named is T1, Hmlalpha2 (UniProt P0CY09).
T1 sequence: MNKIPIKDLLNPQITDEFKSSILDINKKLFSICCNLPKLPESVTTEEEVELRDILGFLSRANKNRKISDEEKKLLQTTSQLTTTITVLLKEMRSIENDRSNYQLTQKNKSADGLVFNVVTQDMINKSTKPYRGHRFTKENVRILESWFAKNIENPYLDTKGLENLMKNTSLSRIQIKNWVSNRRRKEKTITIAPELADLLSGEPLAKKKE
In words: PBM E-score (8-mer binding enrichment) (E-score (-0.5 to 0.5)); higher = stronger / more preferred TF binding; most listed sequences are background and not binding sites. As to conditions: protein concentration: 200 nM; construct: GST-full length. Here is the method: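 Universal 'all 10-mer' protein binding microarrays (Agilent AMADID 015681) probed with GST-tagged S. cerevisiae TFs (full-length or DBD) made by in vitro transcription/translation (PURExpress), about 100-200 nM. Bound TF was detected with fluorescent anti-GST. Each ungapped 8-mer (which stands for itself and its reverse complement) is scored by the PBM enrichment score (E-score), a modified Wilcoxon-Mann-Whitney statistic from -0.5 to +0.5, computed with the Universal PBM Analysis Suite. Scale: above 0.35 generally sequence-specific binding.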
Take CGAACAAG: the “PBM E-score” value was determined as 0.0622.

As to ATTAGAGA, the “PBM E-score” value was -0.0241.

GCATGATA: the “PBM E-score” value is 0.116.

For the sequence CCAGTCAG, the “PBM E-score” value is -0.184.

As for ACCACTAA, the “PBM E-score” value was determined as 0.192.

Regarding ACGACAAT, the “PBM E-score” value is 0.181.

AAGGTGGT: the “PBM E-score” value is -0.0621.

With ACACACAG, the “PBM E-score” value is 0.364.

AGTGCACC: the “PBM E-score” value is -0.2.

On to CCAGGATA, for which the “PBM E-score” value was -0.0585.

Consider CATGCGGA, for which the “PBM E-score” value was -0.173.

Regarding ACGTTATA, the “PBM E-score” value is 0.275.

With CAGCACGC, the “PBM E-score” value was 0.0242.

As to CGCACCCA, the “PBM E-score” value was -0.19.

As for ATGATGAG, the “PBM E-score” value was found to be 0.0587.

Take ACAACGGC: the “PBM E-score” value was found to be 0.00748.

Regarding GTCTACTA, the “PBM E-score” value was 0.069.

As for ACAACCCA, the “PBM E-score” value was 0.133.

In the case of AGTGCATC, the “PBM E-score” value was -0.0502.

As for AAGGGAGG, the “PBM E-score” value is -0.31.

Take GTAGTTGA: the “PBM E-score” value was 0.215.

CGTCGACG: the “PBM E-score” value is -0.268.

Regarding AAGGCGGA, the “PBM E-score” value was -0.225.

In the case of CATCTTAA, the “PBM E-score” value is 0.0666.

As to GCACCTCA, the “PBM E-score” value came to 0.0504.

For CTCAACGC, the “PBM E-score” value turned out to be 0.101.

As to AACCTGAG, the “PBM E-score” value is -0.0554.

As to CGAGGTAG, the “PBM E-score” value was -0.252.

AAATGACG: the “PBM E-score” value was 0.185.

On to CGCTTCAG, for which the “PBM E-score” value was -0.119.

As for CCCAAACG, the “PBM E-score” value is -0.123.

As for GAAAGAGC, the “PBM E-score” value was -0.118.

For ATGCACGG, the “PBM E-score” value was -0.114.

Turning to CCCACGGC, the “PBM E-score” value was -0.328.

As to GCAGGCCA, the “PBM E-score” value was -0.191.

In the case of GAATATGA, the “PBM E-score” value was -0.0988.

On to AGGGTCTA, for which the “PBM E-score” value was -0.151.

Turning to ACCGTTGG, the “PBM E-score” value stood at 0.00354.

Turning to CATTAGTC, the “PBM E-score” value is -0.22.

Take ACATGAGG: the “PBM E-score” value worked out at 0.228.

As to CTTTTACA, the “PBM E-score” value came to 0.453.

As to ATTCAGCC, the “PBM E-score” value is -0.0921.

As to ACGGGGTC, the “PBM E-score” value is -0.254.

ATCCCACA: the “PBM E-score” value is -0.213.

Take GGTGTAAC: the “PBM E-score” value is 0.288.

Regarding CGAAAGAC, the “PBM E-score” value is -0.224.

Turning to ACGGCGCA, the “PBM E-score” value is -0.00223.

As for GATGTCCA, the “PBM E-score” value turned out to be 0.0503.

Take TGAGTGAA: the “PBM E-score” value was -0.137.

With ATCCCTTG, the “PBM E-score” value is -0.118.

For the sequence GTAGGGCA, the “PBM E-score” value is -0.0856.

Take GAGATACC: the “PBM E-score” value was -0.0698.

Consider CAAGGAAG, for which the “PBM E-score” value is -0.0889.

As for AGGCAGCG, the “PBM E-score” value is -0.157.

In the case of ATCAGAAG, the “PBM E-score” value is -0.212.

With CACCTCAC, the “PBM E-score” value worked out at 0.0105.

Take CTTGTATC: the “PBM E-score” value is 0.264.

Turning to GCCGGACC, the “PBM E-score” value is -0.265.

With GTGAAAGA, the “PBM E-score” value came to 0.0174.

As for TACCGCGA, the “PBM E-score” value was found to be 0.0959.

With CTGACCTC, the “PBM E-score” value is -0.26.

Turning to AGTAGTTG, the “PBM E-score” value is 0.041.

For AAATCGTG, the “PBM E-score” value is 0.266.

For AAAAAACG, the “PBM E-score” value was found to be 0.126.

For the sequence GGAATTTA, the “PBM E-score” value was found to be 0.0391.

For the sequence CGGTGATA, the “PBM E-score” value is -0.135.

For AACCTCCC, the “PBM E-score” value was -0.0491.

Regarding CTATCGCC, the “PBM E-score” value is -0.178.

Regarding AAGCAACT, the “PBM E-score” value came to 0.0588.

Regarding CCGTTAGC, the “PBM E-score” value was -0.155.

Turning to CGCTAATC, the “PBM E-score” value was -0.0758.

In the case of CAGATTCC, the “PBM E-score” value is -0.174.

As for ACCAATCT, the “PBM E-score” value was 0.00195.

CTGATGAC: the “PBM E-score” value is -0.124.

As to GCGGATGA, the “PBM E-score” value is -0.0895.

Regarding ATACAATA, the “PBM E-score” value stood at 0.21.

For the sequence CATGAGAG, the “PBM E-score” value is -0.0349.

With ACCCTCGC, the “PBM E-score” value was -0.268.

In the case of ACACCTCC, the “PBM E-score” value was -0.0587.

With AGGCGTTG, the “PBM E-score” value amounted to 0.0651.

Turning to GTGGATCA, the “PBM E-score” value was -0.146.

In the case of ATACTCTA, the “PBM E-score” value was determined as 0.136.

Turning to GCAGTAAC, the “PBM E-score” value was 0.0483.

For AACCCGTC, the “PBM E-score” value is -0.105.

Consider GTCGCCGA, for which the “PBM E-score” value was -0.113.

For ACTTCAAC, the “PBM E-score” value amounted to 0.194.

Consider GAGACACA, for which the “PBM E-score” value was 0.0105.

On to AAAAACTA, for which the “PBM E-score” value turned out to be 0.234.

Regarding AGACACTC, the “PBM E-score” value was -0.0658.

In the case of AGAACCGC, the “PBM E-score” value came out at 0.0282.

In the case of TACCGCTA, the “PBM E-score” value is -0.0146.

Turning to TAGCCGAA, the “PBM E-score” value was -0.202.

For the sequence CGTGTGGA, the “PBM E-score” value came out at 0.0377.

With CTTAGTCC, the “PBM E-score” value was -0.171.
